Non-standard residues stand in square brackets, D forms with d. No end group written: not given here. Hyp = O=C(O)[C@@H]1C[C@@H](O)CN1
T1: purified recombinant human type III procollagen (yeast cells from FibroGen) (human, UniProt P02461 24-1466, hydroxyproline residues formed by co-expressed prolyl 4-hydroxylase; positions not given)
T1 construct: also called Collagen III; procollagen III
T1 sequence (looked up): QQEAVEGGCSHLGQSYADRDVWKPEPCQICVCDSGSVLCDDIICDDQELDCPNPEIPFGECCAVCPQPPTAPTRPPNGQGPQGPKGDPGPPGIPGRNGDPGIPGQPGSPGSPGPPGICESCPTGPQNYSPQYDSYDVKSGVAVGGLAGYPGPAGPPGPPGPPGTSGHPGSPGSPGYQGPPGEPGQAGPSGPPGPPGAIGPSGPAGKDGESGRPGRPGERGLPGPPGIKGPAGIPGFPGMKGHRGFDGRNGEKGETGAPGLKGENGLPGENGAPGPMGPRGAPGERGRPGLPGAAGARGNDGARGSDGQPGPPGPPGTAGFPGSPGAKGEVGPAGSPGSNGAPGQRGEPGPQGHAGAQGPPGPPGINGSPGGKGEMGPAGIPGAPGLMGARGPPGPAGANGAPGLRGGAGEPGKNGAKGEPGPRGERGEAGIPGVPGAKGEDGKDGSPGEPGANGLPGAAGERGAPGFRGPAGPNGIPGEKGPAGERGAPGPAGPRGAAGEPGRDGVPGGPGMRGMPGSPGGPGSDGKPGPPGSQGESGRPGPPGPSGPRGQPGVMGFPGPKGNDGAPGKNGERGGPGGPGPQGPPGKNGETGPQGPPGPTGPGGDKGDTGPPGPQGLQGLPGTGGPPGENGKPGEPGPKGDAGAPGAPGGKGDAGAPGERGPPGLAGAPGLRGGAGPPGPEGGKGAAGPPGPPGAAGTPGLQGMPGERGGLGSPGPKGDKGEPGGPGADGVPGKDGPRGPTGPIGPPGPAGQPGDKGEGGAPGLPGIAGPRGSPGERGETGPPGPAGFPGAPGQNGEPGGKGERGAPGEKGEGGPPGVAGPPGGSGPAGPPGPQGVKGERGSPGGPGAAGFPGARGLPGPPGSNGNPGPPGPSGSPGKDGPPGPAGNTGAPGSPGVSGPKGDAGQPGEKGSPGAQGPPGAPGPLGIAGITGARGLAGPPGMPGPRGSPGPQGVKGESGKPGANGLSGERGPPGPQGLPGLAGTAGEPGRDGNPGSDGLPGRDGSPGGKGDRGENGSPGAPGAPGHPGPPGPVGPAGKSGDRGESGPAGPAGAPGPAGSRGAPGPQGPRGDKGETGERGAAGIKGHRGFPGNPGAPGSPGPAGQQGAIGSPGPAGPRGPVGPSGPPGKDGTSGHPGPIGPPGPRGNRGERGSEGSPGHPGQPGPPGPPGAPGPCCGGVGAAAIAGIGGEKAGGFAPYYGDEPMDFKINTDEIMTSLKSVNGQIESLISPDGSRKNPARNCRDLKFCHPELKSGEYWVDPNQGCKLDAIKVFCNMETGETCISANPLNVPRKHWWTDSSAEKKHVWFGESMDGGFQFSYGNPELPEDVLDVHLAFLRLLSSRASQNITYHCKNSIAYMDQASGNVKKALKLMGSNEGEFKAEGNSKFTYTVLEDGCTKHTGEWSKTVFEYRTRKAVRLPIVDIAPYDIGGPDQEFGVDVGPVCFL

B1: recombinant I domain of integrin α2 subunit (receptor)
chain: CPSLIDVVVVCDESNSIYPWDAVKNFLEKFVQGLDIGPTKTQVGLIQYANNPRVVFNLNTYKTKEEMIVATSQTSQYGGDLTNTFGAIQYARKYAYSAASGGRRSATKVMVVVTDGESHDGSMLKAVIDQCNHDNILRFGIAVLGYLNRNALDTKNLIKEIKAIASIPTERYFFNVSDEAALLEKAGTLGEQIFSIEG

Legend:
[1] = target: T1, purified recombinant human type III …; test: SPR (BIAcore 3000), collagen immobilised on a CM5 chip, equilibrium analysis; high affinity class of sites
[2] = target: T2, purified recombinant human type I procollagen (yeast cells from FibroGen) (human, UniProt P02452 23-1464; P08123 23-1366, hydroxyproline residues formed by co-expressed prolyl 4-hydroxylase; positions not given); test: as above
T2 construct: Procollagen, triple helical; also called Collagen I; procollagen I

[3] = target: T3, bovine mature type II collagen (Sigma) (bovine, UniProt P02459 182-1487); test: as above
T3 construct: mature; Bought tissue collagen; also called type II mature collagen; Collagen II

[4] = target: T1, purified recombinant human type III …; test: SPR (BIAcore 3000), collagen immobilised on a CM5 chip, equilibrium analysis; low affinity class of sites
[5] = target: T2, purified recombinant human type I …; test: as above
[6] = target: T3, bovine mature type II collagen (Sigma); test: as above
[7] = target: B1; test: competition ELISA; peptide competes with coated bovine type I collagen for 5 µM α2I
[8] = target: B1; test: competition ELISA; peptide competes with coated type III procollagen for 5 µM α2I
[9] = target: T4, recombinant I domain of integrin α1 subunit (UniProt P56199 167-364); test: competition ELISA; peptide competes with coated type III procollagen for 0.5 µM α1I
[10] = target: T4, recombinant I domain of integrin α1 …; test: competition ELISA; peptide competes with coated bovine type I collagen for 0.5 µM α1I
[11] = target: T4, recombinant I domain of integrin α1 …; test: SPR (BIAcore 3000) at 15° C, peptide #1 immobilised on a CM5 chip, I domain 0.5-30 nM, 1:1 binding model
[12] = target: B1; test: as above

T2 sequence (P02452 23-1464, chain 1 of 2): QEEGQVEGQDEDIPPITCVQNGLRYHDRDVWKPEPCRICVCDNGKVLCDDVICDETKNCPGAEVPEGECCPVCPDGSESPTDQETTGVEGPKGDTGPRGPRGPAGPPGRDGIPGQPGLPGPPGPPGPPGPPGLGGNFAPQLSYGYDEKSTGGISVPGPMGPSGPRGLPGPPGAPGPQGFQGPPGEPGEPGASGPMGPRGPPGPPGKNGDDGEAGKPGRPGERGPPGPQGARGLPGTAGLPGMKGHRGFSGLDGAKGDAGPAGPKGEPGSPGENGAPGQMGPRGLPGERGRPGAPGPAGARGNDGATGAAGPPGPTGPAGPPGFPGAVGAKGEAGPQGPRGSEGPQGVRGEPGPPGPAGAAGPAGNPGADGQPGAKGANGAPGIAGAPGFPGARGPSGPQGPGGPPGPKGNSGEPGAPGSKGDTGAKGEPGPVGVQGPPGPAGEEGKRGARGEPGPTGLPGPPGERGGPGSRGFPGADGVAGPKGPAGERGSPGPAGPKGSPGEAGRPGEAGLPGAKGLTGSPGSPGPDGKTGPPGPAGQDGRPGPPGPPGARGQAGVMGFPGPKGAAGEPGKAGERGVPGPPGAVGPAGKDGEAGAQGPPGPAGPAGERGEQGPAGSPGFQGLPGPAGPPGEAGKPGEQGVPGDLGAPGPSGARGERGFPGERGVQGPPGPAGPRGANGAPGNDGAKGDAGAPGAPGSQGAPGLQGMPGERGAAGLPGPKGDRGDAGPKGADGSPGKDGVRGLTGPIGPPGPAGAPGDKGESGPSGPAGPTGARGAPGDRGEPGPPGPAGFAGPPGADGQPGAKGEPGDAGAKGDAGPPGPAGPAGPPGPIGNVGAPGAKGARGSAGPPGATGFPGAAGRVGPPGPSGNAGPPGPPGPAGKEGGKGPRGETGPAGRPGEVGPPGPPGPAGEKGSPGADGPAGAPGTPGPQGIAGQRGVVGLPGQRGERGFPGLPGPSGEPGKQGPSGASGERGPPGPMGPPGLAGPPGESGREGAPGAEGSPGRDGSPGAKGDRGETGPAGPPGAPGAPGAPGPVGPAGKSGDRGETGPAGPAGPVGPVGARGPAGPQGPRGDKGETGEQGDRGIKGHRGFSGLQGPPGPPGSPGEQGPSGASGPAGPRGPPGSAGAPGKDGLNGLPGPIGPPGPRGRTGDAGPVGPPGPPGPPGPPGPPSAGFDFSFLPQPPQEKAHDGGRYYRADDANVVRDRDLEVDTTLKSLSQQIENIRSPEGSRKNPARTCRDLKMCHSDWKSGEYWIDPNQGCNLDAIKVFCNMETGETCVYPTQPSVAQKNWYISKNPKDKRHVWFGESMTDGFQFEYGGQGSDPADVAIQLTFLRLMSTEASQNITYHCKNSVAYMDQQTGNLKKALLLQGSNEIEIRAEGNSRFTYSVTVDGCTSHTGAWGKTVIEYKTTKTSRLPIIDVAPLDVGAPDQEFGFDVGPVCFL
T2 sequence (P08123 23-1366, chain 2 of 2, further chain): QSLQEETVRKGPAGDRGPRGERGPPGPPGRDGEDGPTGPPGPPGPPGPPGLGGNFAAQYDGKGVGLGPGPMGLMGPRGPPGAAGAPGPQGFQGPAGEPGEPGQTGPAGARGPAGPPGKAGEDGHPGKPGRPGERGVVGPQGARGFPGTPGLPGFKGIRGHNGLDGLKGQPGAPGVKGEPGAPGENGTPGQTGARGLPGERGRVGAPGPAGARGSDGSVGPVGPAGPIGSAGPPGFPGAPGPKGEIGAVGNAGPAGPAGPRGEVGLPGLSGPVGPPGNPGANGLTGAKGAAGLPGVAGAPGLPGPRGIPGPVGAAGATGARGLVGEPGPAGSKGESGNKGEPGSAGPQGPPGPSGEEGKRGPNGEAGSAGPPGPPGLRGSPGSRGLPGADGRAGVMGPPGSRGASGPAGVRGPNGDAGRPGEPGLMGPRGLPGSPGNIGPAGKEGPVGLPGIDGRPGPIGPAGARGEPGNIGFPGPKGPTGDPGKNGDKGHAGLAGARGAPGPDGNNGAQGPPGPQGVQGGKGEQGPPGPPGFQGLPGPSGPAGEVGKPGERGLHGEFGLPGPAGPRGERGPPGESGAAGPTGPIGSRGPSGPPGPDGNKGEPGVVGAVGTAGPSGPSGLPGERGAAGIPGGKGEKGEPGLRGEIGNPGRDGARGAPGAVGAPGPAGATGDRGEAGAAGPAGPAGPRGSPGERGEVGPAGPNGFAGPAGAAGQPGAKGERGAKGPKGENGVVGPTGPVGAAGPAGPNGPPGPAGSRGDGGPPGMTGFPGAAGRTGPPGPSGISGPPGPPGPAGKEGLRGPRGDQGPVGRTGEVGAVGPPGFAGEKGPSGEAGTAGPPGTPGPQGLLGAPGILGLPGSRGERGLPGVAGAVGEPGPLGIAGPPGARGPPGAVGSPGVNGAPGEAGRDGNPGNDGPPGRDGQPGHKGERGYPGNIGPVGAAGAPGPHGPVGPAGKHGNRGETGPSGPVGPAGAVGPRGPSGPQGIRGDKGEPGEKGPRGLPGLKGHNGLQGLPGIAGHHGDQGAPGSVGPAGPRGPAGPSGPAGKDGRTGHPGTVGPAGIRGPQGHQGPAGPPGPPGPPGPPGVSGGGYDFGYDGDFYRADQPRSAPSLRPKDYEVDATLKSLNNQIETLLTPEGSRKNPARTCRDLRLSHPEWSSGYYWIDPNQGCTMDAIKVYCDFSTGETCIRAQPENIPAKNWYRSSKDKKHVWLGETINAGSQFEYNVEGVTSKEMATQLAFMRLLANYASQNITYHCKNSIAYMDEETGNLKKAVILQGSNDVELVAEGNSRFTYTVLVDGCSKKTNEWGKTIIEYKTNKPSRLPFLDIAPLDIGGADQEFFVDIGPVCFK
T3 sequence (P02459 182-1487): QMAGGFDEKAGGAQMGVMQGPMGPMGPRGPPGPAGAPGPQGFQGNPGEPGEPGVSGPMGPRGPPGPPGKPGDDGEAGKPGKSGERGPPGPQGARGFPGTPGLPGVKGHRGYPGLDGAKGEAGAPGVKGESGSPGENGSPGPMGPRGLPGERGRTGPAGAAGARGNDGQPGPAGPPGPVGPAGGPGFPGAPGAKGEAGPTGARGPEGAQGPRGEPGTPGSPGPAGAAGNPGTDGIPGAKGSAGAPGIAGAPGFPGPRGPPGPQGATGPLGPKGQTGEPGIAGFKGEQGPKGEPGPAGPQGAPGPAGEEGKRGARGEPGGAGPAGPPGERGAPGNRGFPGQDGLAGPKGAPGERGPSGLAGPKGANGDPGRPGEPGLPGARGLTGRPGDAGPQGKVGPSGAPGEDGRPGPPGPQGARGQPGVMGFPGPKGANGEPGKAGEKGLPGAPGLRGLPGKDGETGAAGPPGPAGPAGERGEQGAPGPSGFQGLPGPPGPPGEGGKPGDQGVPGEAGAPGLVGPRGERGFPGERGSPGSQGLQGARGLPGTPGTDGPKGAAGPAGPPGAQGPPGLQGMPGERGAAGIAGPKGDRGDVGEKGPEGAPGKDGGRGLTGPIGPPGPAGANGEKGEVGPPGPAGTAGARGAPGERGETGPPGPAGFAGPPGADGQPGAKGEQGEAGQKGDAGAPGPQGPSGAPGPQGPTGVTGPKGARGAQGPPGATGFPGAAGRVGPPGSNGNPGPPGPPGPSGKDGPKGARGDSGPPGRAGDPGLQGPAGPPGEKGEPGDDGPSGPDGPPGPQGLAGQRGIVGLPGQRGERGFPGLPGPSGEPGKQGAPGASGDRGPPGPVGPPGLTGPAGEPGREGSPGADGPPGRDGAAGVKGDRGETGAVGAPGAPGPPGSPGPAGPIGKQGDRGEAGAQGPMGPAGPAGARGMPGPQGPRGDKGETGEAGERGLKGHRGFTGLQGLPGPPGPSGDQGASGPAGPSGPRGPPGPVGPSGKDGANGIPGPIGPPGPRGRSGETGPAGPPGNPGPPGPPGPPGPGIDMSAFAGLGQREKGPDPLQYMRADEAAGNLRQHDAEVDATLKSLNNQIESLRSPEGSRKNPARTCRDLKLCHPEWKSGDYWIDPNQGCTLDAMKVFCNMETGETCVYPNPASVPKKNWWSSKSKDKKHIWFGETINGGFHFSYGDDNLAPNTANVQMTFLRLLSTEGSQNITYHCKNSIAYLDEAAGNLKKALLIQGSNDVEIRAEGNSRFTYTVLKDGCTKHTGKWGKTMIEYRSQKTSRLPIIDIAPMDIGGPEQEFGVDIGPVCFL

Kd [1] | Kd [2] | Kd [3] | Kd [4] | Kd [5] | Kd [6] | IC50 [7] | IC50 [8] | IC50 [9] | IC50 [10] | Kd [11] | koff [11] | kon [11] | Kd [12] | koff [12] | kon [12] | Binder
330 nM | 260 nM | 1750 nM | 14500 nM | 3990 nM | 16500 nM | – | – | – | – | – | – | – | – | – | – | B1
– | – | – | – | – | – | 140 nM | 1900 nM | 1000 nM | 1400 nM | 23 nM | 0.0013 s⁻¹ | 56000 M⁻¹ s⁻¹ | 283 nM | 0.012 s⁻¹ | 44000 M⁻¹ s⁻¹ | GP[Hyp]GP[Hyp]GP[Hyp]GR[Hyp]GR[Hyp]GERGL[Hyp]GP[Hyp]GP[Hyp]GP[Hyp] (Forms a collagen-like triple helix by CD) [synthetic collagen peptide #1, (GPO)3GROGROGERGLO(GPO)3]

Reference: patent US20070099244A1 (TEXAS A AND M UNIVERSITY SYSTEM, published 2007)
